Measured values: PubChem BioAssay AID1159614 (National Center for Advancing Translational Sciences (NCATS), 2016)
The whole screen tested about 45,000 compounds, of which about 65 (0.1%) were called active. Calls come from the whole dose curve; as a rule, active = well fitted activation curve with a large enough effect; inconclusive = small, poorly fitted or top-dose-only effect; inactive = no such curve, though single readings can be large or run the other way. The list shows a part of the results.

molecular target: Galactocerebrosidase (Homo sapiens) (UniProt P54803); assay: A Novel Cell-Based Assay to Identify Small Molecules for B -Galactocerebrosidase; settings: 145M-Twi-hGALC-G270D cells, HMU-beta-Gal fluorescence, 48 h; series mostly up to 57.5 µM; activation: at the top concentration; note: 0% is about no effect; nearly all actives have a fitted effect of over 65% in size
Chain of UniProt P54803 (P54803 whole entry, looked up): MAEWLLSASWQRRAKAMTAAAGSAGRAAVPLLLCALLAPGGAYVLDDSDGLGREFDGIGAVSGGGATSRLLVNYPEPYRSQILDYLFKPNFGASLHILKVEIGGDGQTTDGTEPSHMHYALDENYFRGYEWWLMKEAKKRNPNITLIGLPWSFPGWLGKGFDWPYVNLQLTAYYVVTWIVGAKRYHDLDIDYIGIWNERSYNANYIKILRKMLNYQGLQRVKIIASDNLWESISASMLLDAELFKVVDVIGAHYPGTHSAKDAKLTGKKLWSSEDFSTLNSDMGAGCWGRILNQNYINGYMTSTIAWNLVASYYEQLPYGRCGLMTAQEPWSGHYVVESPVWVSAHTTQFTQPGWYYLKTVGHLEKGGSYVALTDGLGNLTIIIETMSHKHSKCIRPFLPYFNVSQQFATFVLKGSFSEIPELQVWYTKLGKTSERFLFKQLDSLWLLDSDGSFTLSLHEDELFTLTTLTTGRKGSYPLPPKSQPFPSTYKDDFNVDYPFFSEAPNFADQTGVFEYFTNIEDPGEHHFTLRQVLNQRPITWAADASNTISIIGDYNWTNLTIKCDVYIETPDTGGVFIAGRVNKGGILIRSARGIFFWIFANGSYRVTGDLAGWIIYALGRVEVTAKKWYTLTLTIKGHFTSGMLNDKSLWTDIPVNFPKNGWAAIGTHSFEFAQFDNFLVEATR
Summary of the method: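 qHTS, 1536-well; 145M-Twi-hGALC-G270D cells (WT line also made) in DMEM/F12 + 10% FBS; compound incubation on live cells; HMU-β-gal 0.1 mM final, pH 5.2, NaTC; carbonate stop; fluorescence increase = enhanced residual activity.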

activation, inactive:
COc1cc2[nH]c(=O)n(Cc3ccc(C(=O)N4CCN(c5cc(Cl)ccc5C)CC4)cc3)c(=O)c2cc1OC -26.6%, COc1ccc(N(Cc2cccs2)C(=O)c2ccc(C(C)(C)C)cc2)cc1 17.7%, O=C(NCC(c1ccc2c(c1)OCO2)N1CCOCC1)C(=O)Nc1ccc(F)cc1F (stereo unspecified) -2.04%, Cc1cc(C)c(NC(=O)Cn2ccn(-c3cccc(Cl)c3)c(=O)c2=O)c(C)c1 -11.5%, O=C(CCC1N=C2c3ccccc3N=C(SCc3ccccc3F)N2C1=O)NCCc1ccccc1 (stereo unspecified) -12.1%, COc1ccc(N(C(=O)c2cccc(C)c2)S(=O)(=O)c2ccc(C)cc2)cc1 -19.5%, O=C(Nc1nnc(S(=O)(=O)N2CCCc3ccccc32)s1)c1cccc(F)c1 -10.6%, COC(=O)C1CCN(CC(=O)Nc2cc(C)c3c(=O)oc4ccccc4c3n2)CC1 -7.96%, CCn1c(SCc2ccc(F)cc2Cl)nnc1-c1nonc1NC(C)=O 1.08%, Cc1ccc2c(c1)N(C(=O)C1CCN(S(=O)(=O)c3c(C)noc3/C=C/c3ccccc3F)CC1)CCO2 5.73%, CCOC(=O)c1ccc(NC(=O)c2c(C)nn(-c3ccc(F)cc3)c2-n2cccc2)cc1 -5.75%, CC(C)(C)c1ccc(S(=O)(=O)c2cn(CC(=O)Nc3ccccc3)c3ccccc3c2=O)cc1 -10.1%, Cc1cccc(CCNC(=O)c2cnc3c(C)cccn3c2=O)c1 -7.56%, Cc1ccc(CNC(=O)c2ccc3c(c2)N(Cc2ccccc2)C(=O)c2ccccc2S3(=O)=O)cc1 -9.96%, COc1ccccc1CNC(=O)Cc1csc2nc(-c3ccccc3)cn12 -14.2%, COc1ccc(OC)c(CNC(=O)Cn2nc(C)c3nn(-c4ccc(Cl)cc4)c(C)c3c2=O)c1 -15.6%, COc1ccc2oc(=O)c(-c3cn4c(n3)sc3cc(OC)ccc34)cc2c1 -22.2%, COc1ccc2c(Sc3ccccc3)c(C(=O)NCCCN3CCCCC3)[nH]c2c1 -9.33%, COc1ccc(/C=C/C(=O)Nc2nc3n(n2)C(c2ccccc2)C=C(c2ccc(Cl)cc2)N3)cc1 (stereo unspecified) -7.28%, COc1ccc(CNC(=O)CCNS(=O)(=O)c2cccc3nsnc23)cc1 -5.25%, CCOc1ccccc1CNC(=O)c1ccc(NC(=O)N2CCSc3ncccc32)cc1 -9.61%, Fc1ccc(-n2ncc3c(N4CCC(Cc5ccccc5)CC4)ncnc32)cc1 -6.2%, Clc1ccc(N2CCN(c3ncnc4c3cnn4-c3ccccc3)CC2)cc1Cl -18.6%, COc1ccc(NC(=O)c2cc(S(=O)(=O)N3CCCCCC3)cn2C)cc1Cl -3.85%, CCc1ccccc1NC(=O)Nc1nnc(N(C)Cc2ccccc2)s1 -10.1%, C[C@@H](CN1CC(=O)NC(=O)C1)N1CC(=O)NC(=O)C1 -6.3%, O=C(C1CCCN(S(=O)(=O)c2ccc(Br)s2)C1)N1CCN(c2cccc(Cl)c2)CC1 (stereo unspecified) -16.2%, Cc1cccc(N2CCN(S(=O)(=O)c3ccc(-c4cc(C(F)(F)F)on4)s3)CC2)c1C 0.244%, Cc1ccccc1OCC(=O)Nc1ccc2nc(SCC(=O)N3CCc4ccccc43)sc2c1 9.03%, COc1ccc(Cl)cc1NC(=O)c1nnn(Cc2cccc(C(F)(F)F)c2)c1N -14.4%, COc1ccc2c(c1)c1c(c(=O)n(-c3ccc(C)cc3)c(=O)n1CC(=O)NCc1ccc(C)cc1)n2C -10.5%, COc1ccc(OCC(=O)Nc2cc(-c3nc4ccccc4s3)ccc2C)cc1 -7.89%, CCC(C)Sc1oc(-c2ccco2)nc1S(=O)(=O)c1ccc(C)cc1 (stereo unspecified) -38.9%, OCc1cc(C(O)CNCCCCCCOCCCCc2ccccc2)ccc1O (stereo unspecified) -10.9%, COc1cccc(C2C(C(=O)Nc3ccc(Cl)cc3)=C(C)Nc3nc4ccccc4n32)c1 (stereo unspecified) 11.6%, COc1ccccc1C1Nc2c(sc3nc(C)cc(C)c23)C(=O)N1c1ccccc1 (stereo unspecified) -7.77%, Cc1ccc(CNc2ncnc3c2cnn3-c2ccc(Cl)cc2)cc1 -3.18%, COc1cccc(CC(=O)Nc2ccc(-c3nc4ccccc4s3)cc2)c1 -12.7%, C=CCc1cccc2cc(C(=O)NCCc3c(C)[nH]c4c(C)cccc34)c(=O)oc12 -9.37%, O=C(NCC(c1ccc2c(c1)OCO2)N1CCOCC1)C(=O)Nc1ccccc1 (stereo unspecified) -10.1%, CCN(CC)c1ccc(NC(=O)CCc2nc3cccnc3n2Cc2cccs2)c(C)c1 4.29%, O=C(O)Cc1sc(-c2ccccc2)nc1-c1ccc(Cl)cc1 -3.96%, Cc1cc2c(cc1C)NC(CC(=O)Nc1cccc(Cl)c1)C(=O)N2 (stereo unspecified) -15.4%, NS(=O)(=O)c1ccc(CCNC(=O)Cn2c(-c3cccs3)cc3ccccc32)cc1 -4.56%, Cc1ccccc1NC(=O)c1ccc2c(O)c(S(=O)(=O)c3ccccc3)c(=O)[nH]c2c1 -23.3%, CCOC(=O)N1CCC(NC(=O)c2cnn(-c3ccc(F)cc3F)c2C2CCN(C(=O)OC(C)(C)C)CC2)CC1 -2.18%, CNc1ccc(-c2nc(-c3ccco3)no2)cc1[N+](=O)[O-] -3.36%, CN(Cc1ccc(F)cc1)S(=O)(=O)c1nnc(NC(=O)c2ccccc2Cl)s1 -4.98%, Cn1nnnc1SCCCNCc1ccc(-c2ccc(F)c(Cl)c2)o1 -12%, CCc1nc(-c2cc(S(=O)(=O)N3CCN(c4ccccc4F)CC3)ccc2OC)no1 -20.8%, CCCN1C(C(=O)c2ccccc2)=C(OC(=O)c2ccc(OC)cc2)c2ccccc2S1(=O)=O -9.65%, O=C(Cn1c(=O)c(C(F)(F)F)nc2ccccc21)Nc1cccc(Br)c1 -6.83%, COc1ccc(CCNC(=O)c2c(C)oc3ncnc(N4CCOCC4)c23)c(OC)c1 3%, Cc1cc(C)cc(Nc2cc(C(=O)NC3CCC(C)CC3)c3ccccc3n2)c1 (stereo unspecified) 19.4%, Cc1ccc(S(=O)(=O)Nc2cc3c(cc2C)n(C)c(=O)c(=O)n3C)c(C)c1 -16.4%, Cc1cc(C)cc(NS(=O)(=O)c2ccc(N3CCCCS3(=O)=O)cc2)c1 -16.3%, O=C(NCCc1ccccc1)c1ccc(CS(=O)(=O)Cc2ccccc2Cl)o1 -0.576%, Cc1ccc(CNC(=O)C2CCCN(S(=O)(=O)c3cn(C)cn3)C2)cc1 (stereo unspecified) -9.63%, CCc1ccc(NC(=O)CN2C(=O)CCSc3ccccc32)cc1 -5.88%, Cc1cc(=O)n(CC(=O)NCc2ccc(OC(C)C)cc2)c2c1c(C)nn2-c1cccc(F)c1 -10.5%, CC(C)c1cnc2c(c1SCC(=O)N1CCCCC1)c(=O)n(C)c(=O)n2C -1.31%
